From PubChem BioAssay AID1030 (National Center for Advancing Translational Sciences (NCATS), 2008)
In all, about 220,000 compounds went through this assay and about 16,000 (7.3%) were called active. Inconclusive results, whose numbers are uncertain, are shown with a selection of clear calls. The call rests on the fitted dose curve; in most records, active means well fitted inhibition curve with a large enough effect (not every such curve was filed as active); inconclusive means small, poorly fitted or top-dose-only effect, or another doubt; inactive means no such curve, though single readings can be large or run the other way. No potency is given beside an inconclusive call; the fits are too rough.
Potency means the concentration at half of the fitted maximal effect; tags describe the fitted curve by direction and shape.
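Wherever activity, negative = inhibition is given: plate controls were no enzyme wells and a reference inhibitor.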

What follows are compounds tested against Aldehyde dehydrogenase 1A1 (Homo sapiens) (UniProt P00352) (assay: qHTS Assay for Inhibitors of Aldehyde Dehydrogenase 1 (ALDH1A1)). Settings: Purified ALDH1A1, NADH fluorescence, propionaldehyde substrate; series mostly up to 75.3 µM; activity, negative = inhibition: at the top concentration.
Chain of UniProt P00352 (P00352 whole entry, looked up): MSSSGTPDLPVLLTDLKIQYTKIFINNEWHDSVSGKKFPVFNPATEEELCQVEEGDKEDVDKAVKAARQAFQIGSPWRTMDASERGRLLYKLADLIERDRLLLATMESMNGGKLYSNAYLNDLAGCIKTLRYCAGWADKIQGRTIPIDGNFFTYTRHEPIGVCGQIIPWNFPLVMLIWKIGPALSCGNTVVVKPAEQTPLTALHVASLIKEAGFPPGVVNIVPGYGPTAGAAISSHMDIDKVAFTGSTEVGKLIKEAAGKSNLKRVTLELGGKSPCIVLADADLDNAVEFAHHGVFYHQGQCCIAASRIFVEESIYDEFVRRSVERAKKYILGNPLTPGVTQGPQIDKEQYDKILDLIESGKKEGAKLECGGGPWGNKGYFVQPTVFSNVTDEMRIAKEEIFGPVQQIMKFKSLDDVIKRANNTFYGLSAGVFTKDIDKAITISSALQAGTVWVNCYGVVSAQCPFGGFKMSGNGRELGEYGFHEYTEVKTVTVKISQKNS
With `Cc1ccc(C(=O)CSc2nnc(-c3cccnc3)n2N)cc1` the Potency was inconclusive [inhibitor, single point].
With `Cc1cc(/C=N/NC(N)=S)c(O)c(/C=N/NC(N)=S)c1` the “activity, negative = inhibition” value was inactive: 457%.
For `O=C(NCC1CCCCC1)c1cc(S(=O)(=O)N2CCCCC2)ccc1N1CCOCC1`, the Potency was inconclusive [inhibitor, single point].
`COc1ccc(-n2c(C)cc(C(=O)COc3ccc(C)nc3[N+](=O)[O-])c2C)cc1` was tested, and the Potency was inconclusive [inhibitor, partial curve].
With `Cc1ccc(-c2nn3c(C)nnc3s2)cc1NC(=O)c1ccco1` the Potency was inconclusive [inhibitor, single point].
In the case of `O=C(Nc1ccc(Cl)c(Cl)c1)Nc1nc(-c2ccccc2)cs1`, the “activity, negative = inhibition” value is reported as inactive: 5.14%.
With `O=C(Nc1ccc(N2CCCC2=O)cc1)c1cccc(F)c1` the Potency was inconclusive [inhibitor, partial curve].
`COc1ccc(NC(=O)Cn2nnc(-c3ccccc3NC(=O)C3CC3)n2)cc1` was tested, and the “activity, negative = inhibition” value was inactive: -0.384%.
In the case of `S=C(c1ccc(-c2ccc(Br)cc2)o1)N1CCCCC1`, the Potency is reported as inconclusive [inhibitor, single point].
In the case of `COc1ccc2oc(C(=O)OCC(=O)NCCN3C(=O)CSC3=O)c(C)c2c1`, the Potency is reported as inconclusive [inhibitor, partial curve].
For `Cc1ccccc1C(=O)NC(=S)Nc1ccccc1N1CCCC1`, the Potency was active: 25.1 µM.
In the case of `COc1cccc(OC)c1C(=O)NC(=S)Nc1ccc2c(c1)C(=O)N(C)C2=O`, the “activity, negative = inhibition” value is reported as inactive: -15.5%.
`Cc1ccc(-n2cc(C(=O)c3ccccc3O)cn2)cc1` was tested, and the Potency was inconclusive [inhibitor, single point].
For `CCOC(=O)c1cc([N+](=O)[O-])sc1NC(=O)CC`, the Potency was inconclusive [inhibitor, single point].
In the case of `C=CCNC(=O)c1ccccc1NC(=O)C1COc2ccccc2O1` (stereo not drawn), the “activity, negative = inhibition” value is reported as inactive: -0.145%.
In the case of `COc1ccc(NC(=O)/C=C/C(=O)O)cc1Cl`, the Potency is reported as inconclusive [inhibitor, single point].
In the case of `CCN=c1scc(-c2ccc3c(c2)NC(=O)CO3)n1N=C1CCCC1`, the Potency is reported as inconclusive [inhibitor, single point].
In the case of `Cc1cccc(C)c1NC(=S)NCCCN1CCCC1=O`, the Potency is reported as inconclusive [inhibitor, partial curve, poor fit].
With `Cc1cc(C(=O)NCC23CC4CC(CC(C4)C2)C3)c(C)o1` the Potency was inconclusive [inhibitor, single point].
`Cc1ccc(S(=O)(=O)N2CCCOC2CNC(=O)C(=O)NCCCn2ccnc2)cc1` (stereo not drawn) was tested, and the Potency was inconclusive [inhibitor, single point].
`CCCCN(C(=O)c1ccc(Cl)c([N+](=O)[O-])c1)c1c(N)n(CCC)c(=O)[nH]c1=O` was tested, and the “activity, negative = inhibition” value was inactive: 8.12%.
`CCn1cc(C(=O)OCC(=O)NCc2ccccc2Cl)c(=O)c2ccc(C)nc21` was tested, and the Potency was inconclusive [inhibitor, single point].
For `CCOC(=O)c1c(C)[nH]c(C(=O)COC(=O)CSC)c1C`, the “activity, negative = inhibition” value was inactive: -1.55%.
For `O=C(NCc1ccccc1)c1sc(=S)n2c1[nH]c(=O)c1ccccc12`, the Potency was inconclusive [inhibitor, single point].
With `Clc1ccccc1-c1ccc2ncnc(NC3CCNCC3)c2c1` the “activity, negative = inhibition” value was inactive: 13.6%.
For `Cc1ccc(-n2nnc(-c3cnc4ccccc4c3)n2)cc1`, the Potency was inconclusive [inhibitor, single point].
In the case of `O=c1c(-c2ccc(Cl)cc2)coc2c(CN3CCOCC3)c(O)ccc12`, the Potency is reported as inconclusive [inhibitor, partial curve].
In the case of `CCNc1nc2nc3ccc(C)cn3c(=O)c2cc1C(=O)NCC1CCCO1` (stereo not drawn), the Potency is reported as inconclusive [inhibitor, partial curve].
`O=C(CNCC1CCCO1)N1CCCc2ccccc21` (stereo not drawn) was tested, and the Potency was inconclusive [inhibitor, single point].
`CCC(=O)N1CCc2cc(S(=O)(=O)N3CCc4ccccc4C3)ccc21` was tested, and the Potency was inconclusive [inhibitor, single point].
With `CNc1nc(N2CCc3ccccc32)ncc1F` the Potency was inconclusive [inhibitor, single point].
For `COc1ccc(OC)c(Nc2ncnc3sc(-c4ccccc4)cc23)c1`, the Potency was inconclusive [inhibitor, partial curve].
In the case of `O=C(CN1C(=O)c2ccccc2S1(=O)=O)NCc1ccccn1`, the “activity, negative = inhibition” value is reported as inactive: 5.56%.
For `Cc1cccc(OCC(=O)Nc2cc(C)on2)c1`, the “activity, negative = inhibition” value was inactive: -2.79%.
For `COc1ccccc1C(=O)N1CCN(c2ccccn2)CC1`, the Potency was inconclusive [inhibitor, single point].
In the case of `CCOC(=O)N1CCN(c2c(NCCCN(CC)c3cccc(C)c3)c(=O)c2=O)CC1`, the Potency is reported as inconclusive [inhibitor, single point].
With `N#Cc1c(NC(=O)C2CC(Cl)=CCC2C(=O)O)sc2c1CCCCC2` (stereo not drawn) the Potency was inconclusive [inhibitor, single point].
In the case of `NC1=NC(=O)CC(C(=O)NCc2ccccc2)S1` (stereo not drawn), the Potency is reported as active: 17.8 µM.
With `O=C(NCc1ccco1)c1ccc(COc2ccccc2Cl)cc1` the Potency was inconclusive [inhibitor, single point].
With `O=C(COc1ccc(Cl)cc1)NCC(=O)N/N=C/c1cccs1` the Potency was inconclusive [inhibitor, single point].
With `O=C1CCC(=O)N1OCCCCOc1ccccc1` the “activity, negative = inhibition” value was inactive: -0.791%.
`CC1CCCCC1NC(=O)COC(=O)CNC(=O)c1cccc(F)c1` (stereo not drawn) was tested, and the Potency was inconclusive [inhibitor, partial curve].
For `COc1ccc(CCNC(=O)/C(=C/c2cccnc2)NC(=O)c2ccccc2)cc1OC`, the “activity, negative = inhibition” value was inactive: -5.21%.
For `COCCN1C(=O)c2ccccc2C(C(=O)NCc2ccco2)C1c1c[nH]c2ccccc12` (stereo not drawn), the Potency was inconclusive [inhibitor, single point].
For `CC(=O)N1N=C(c2ccc3ccccc3c2)OC1(C)C`, the Potency was inconclusive [inhibitor, partial curve].
For `CCOC(=O)N1CCN(C(=O)c2ccc3c(=O)n(CCC4=CCCCC4)c(=O)[nH]c3c2)CC1`, the Potency was active: 6.31 µM.
In the case of `COc1cc(NC(=O)CN2C(=O)CN(C)C2=O)c(C)cc1[N+](=O)[O-]`, the “activity, negative = inhibition” value is reported as inactive: -7.18%.
`CCOC(=O)C1=C2c3ccc4ccccc4c3CC(C)(C)N2C(=O)C1=O` was tested, and the Potency was inconclusive [inhibitor, single point].
With `O=C(COc1ccccc1F)NNC(=O)c1ccc(N2CCCCC2)c([N+](=O)[O-])c1` the Potency was inconclusive [inhibitor, partial curve, poor fit].
With `CN1CCN(CC(=O)Nc2cccc3ccccc23)CC1` the activity, negative = inhibition was inactive: 19.4% [at 13.5 µM].
`C=CCN1C(=O)N/C(=C/c2ccccc2OCC(=O)Nc2ccc(F)cc2)C1=O` was tested, and the Potency was inconclusive [inhibitor, partial curve].
`CCN1C(=O)CC(N2CCC(C(=O)N3CCCCCC3)CC2)C1=O` (stereo not drawn) was tested, and the Potency was inconclusive [inhibitor, single point].
In the case of `COc1cc(Cl)c(C)cc1NC(=O)CSc1nnc(-c2ccco2)n1CC(C)C`, the Potency is reported as inconclusive [inhibitor, single point].
In the case of `Clc1ccc(/C(Cc2nc3ccccc3[nH]2)=N\Nc2ccccc2)cc1`, the Potency is reported as active: 4.47 µM.
With `O=C(O)[C@@H](O)[C@@H](O)[C@H](O)C(=O)CO` the activity, negative = inhibition was inactive: 6.82% [at 13.5 µM].
For `CCc1ccc(C2c3[nH]c4ccccc4c3CCN2C(=O)c2cc(C)nn2C)cc1` (stereo not drawn), the “activity, negative = inhibition” value was inactive: 0.0413%.
With `CCN1CCN(C(c2cc(OC)c(OC)c(OC)c2)c2nnnn2C(C)C)CC1` (stereo not drawn) the Potency was inconclusive [inhibitor, single point].
`COCC(C)NC(=O)Cc1ccc(F)cc1` (stereo not drawn) was tested, and the “activity, negative = inhibition” value was inactive: 13.4%.
For `NC(=O)c1ccc(N2CCN(c3ccc(O)cc3)CC2)c([N+](=O)[O-])c1`, the Potency was active: 15.8 µM.
`CN(CC1CCCO1)S(=O)(=O)c1ccc(C(=O)Nc2ccc3c(c2)OCO3)cc1` (stereo not drawn) was tested, and the Potency was inconclusive [inhibitor, single point].
In the case of `CCCN(CC(=O)Nc1ccc(C(C)=O)cc1)CC(=O)Nc1ccccc1C`, the Potency is reported as active: 14.1 µM.
With `Cc1nnc2sc(-c3ccc(NC(=O)CSc4ccc(Cl)cc4)cc3)nn12` the Potency was inconclusive [inhibitor, single point].
With `Cc1cc2[nH]cnc2c([N+](=O)[O-])c1C` the “activity, negative = inhibition” value was inactive: 10.1%.
For `C[C@@](N)(C(=O)O)[C@@H]1C[C@@H]1C(=O)O`, the “activity, negative = inhibition” value was inactive: 2.49%.
For `COC(=O)c1ccc(Cn2nc(C)c([N+](=O)[O-])c2C)o1`, the Potency was inconclusive [inhibitor, single point].
For `CCn1cc(C(=O)NC2CCc3ccccc32)c(=O)c2ccc(C)nc21` (stereo not drawn), the Potency was inconclusive [inhibitor, full curve].
In the case of `CSc1ccc(C2NC(=O)c3c(sc4c3CCN(C)C4)N2)cc1` (stereo not drawn), the Potency is reported as inconclusive [inhibitor, partial curve].
`Cc1ccc(C(C)C)n1C(=O)OC(C)(C)C` was tested, and the activity, negative = inhibition was inactive: 9.37% [at 13.5 µM].
In the case of `CCOC(=O)c1c(NC(=O)OC)sc(C(=O)N(C)C)c1C`, the Potency is reported as inconclusive [inhibitor, single point].
With `CCC(C)N=CC1=C(O)CC(c2ccccc2)CC1=O` (stereo not drawn) the Potency was inconclusive [inhibitor, single point].
For `COc1ccccc1/C=C1\CCCC2=C1Nc1nnnn1C2c1ccccc1OC` (stereo not drawn), the Potency was active: 25.1 µM.
In the case of `CC(=O)N1CCN(CCN=CC2=C(O)CC(C)(C)CC2=O)CC1`, the “activity, negative = inhibition” value is reported as inactive: -14.2%.
For `NC/C(=N\O)c1ccc(Cl)cc1Cl`, the “activity, negative = inhibition” value was inactive: 10.1%.
